The results in this text go back to PubChem BioAssay AID588579 (National Center for Advancing Translational Sciences (NCATS), 2011).

“And” between values parts separate entries of the source, which are not always exact repeats. Equal values may be shown once. Out of some 400,000 compounds screened, about 2,200 (0.55%) were called active. About 1% were inconclusive and are not listed. Calls follow the shape of the dose curve; as a rule, active = well fitted inhibition curve with a large enough effect; inconclusive = small, poorly fitted or top-dose-only effect, or another doubt; inactive = no such curve, though single readings can be large or run the other way. The list shows a part of the results, in another mix than the full data. Where a structure was tested more than once in an assay, its records may differ in their call.
% is scaled to controls: 0 for no effect and ±100 for the full control effect; potency is read from the fitted curve at half-maximal effect.

For the experiment, the target named is DNA polymerase kappa (Homo sapiens) (UniProt Q9UBT6). Description: qHTS for Inhibitors of Polymerase Kappa. To be noted: purified Pol kappa, fluorescent DNA synthesis assay, 10 min; activity, negative = inhibition: at the top concentration. As for the experimental part: The processing and repair of DNA interstrand crosslinks (ICL) in eukaryotic cells are extremely complex, potentially involving multiple DNA repair and damage tolerance pathways, including homologous recombination, nucleotide excision repair, translesion synthesis (TLS), and cell cycle checkpoints.
Chain of UniProt Q9UBT6 (Q9UBT6 whole entry, looked up): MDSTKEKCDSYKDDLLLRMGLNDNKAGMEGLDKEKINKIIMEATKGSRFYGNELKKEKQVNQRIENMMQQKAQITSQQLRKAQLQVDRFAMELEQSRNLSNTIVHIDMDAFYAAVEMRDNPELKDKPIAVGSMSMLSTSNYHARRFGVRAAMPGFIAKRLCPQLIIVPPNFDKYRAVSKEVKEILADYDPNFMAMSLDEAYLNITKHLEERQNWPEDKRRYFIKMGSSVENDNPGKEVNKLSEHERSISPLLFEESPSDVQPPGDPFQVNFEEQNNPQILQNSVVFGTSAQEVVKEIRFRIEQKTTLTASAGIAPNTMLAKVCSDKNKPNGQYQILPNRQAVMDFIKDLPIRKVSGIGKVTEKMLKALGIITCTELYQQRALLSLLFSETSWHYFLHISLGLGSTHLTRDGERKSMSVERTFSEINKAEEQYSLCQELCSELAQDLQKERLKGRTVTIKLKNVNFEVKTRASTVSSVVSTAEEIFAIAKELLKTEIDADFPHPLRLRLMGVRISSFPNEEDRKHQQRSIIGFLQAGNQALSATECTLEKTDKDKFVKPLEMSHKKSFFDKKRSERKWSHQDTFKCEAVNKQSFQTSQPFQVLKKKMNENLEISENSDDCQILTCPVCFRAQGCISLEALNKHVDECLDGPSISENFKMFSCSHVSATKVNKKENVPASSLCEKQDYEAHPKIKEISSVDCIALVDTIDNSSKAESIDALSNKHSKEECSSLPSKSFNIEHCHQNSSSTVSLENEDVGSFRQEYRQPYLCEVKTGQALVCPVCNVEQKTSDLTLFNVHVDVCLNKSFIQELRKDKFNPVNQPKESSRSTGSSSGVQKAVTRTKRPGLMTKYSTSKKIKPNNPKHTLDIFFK
To that end, in a collaboration between the Oregon Health & Science University and the NIH Chemical Genomics Center a 1536-well high-throughput screen was developed. This fluorescent screen was assayed against the NIH Molecular Libraries Small Molecule Repository (MLSMR) to discover inhibitors of Pol Kappa.
NIH Chemical Genomics Center [NCGC]
NIH Molecular Libraries Probe Centers Network [MLPCN]
Assay Submitter (PI): Stephen Lloyd, Oregon Health & Science University
Three microliters of reagents (buffer in column 3 and 4 as negative control and 10 nM Pol kappa in columns 1, 2, and 5-48) were dispensed into a 1536-well black solid-bottom plate. Compounds (23 nL) were transferred via Kalypsys pin tool equipped with 1536-pin array. The plates were then incubated for 15 min at room temperature, and 1 uL substrate (50 nM final concentration) were then added to start the reaction and kinetically read twice at 0 min and 10 min on the Viewlux reader
As for `CC(=O)O[C@H]1C(=O)[C@@]2(C)C([C@H](OC(=O)c3ccccc3)[C@]3(O)C[C@H](OC(=O)[C@H](O)[C@@H](NC(=O)c4ccccc4)c4ccccc4)C(C)=C1C3(C)C)[C@]1(OC(C)=O)CO[C@@H]1C[C@@H]2OC(=O)[C@H](C)NC(=O)c1ccc(-c2c3ccc(=O)cc-3oc3cc(O)ccc23)c(C(=O)O)c1` (some centres undefined), the Potency was active: 4.74 µM.
On to `C/C=C1/C[C@@H](C)[C@](O)(CO)C(=O)OCC2=CCN3CC[C@@H](OC1=O)[C@@H]23`, for which the “activity, negative = inhibition” value was inactive: -8.67% [at 107 µM].
The same measure, in the same setting: the same measure for `CCCCC/C=C\C/C=C\C/C=C\C/C=C\CCCC(=O)OCCN`: inactive: -11.5% [at 12 µM].
Consider `COC1C(C)OC(OC2CC(C)(O)Cc3cc4c(c(O)c32)C(=O)c2c(O)cc3c(c2C4=O)OC2OC3(C)C(O)C(N(C)C)C2O)C(OC)C1(C)OC` (centres undefined), for which the Potency was active: 25.1 µM.
Turning to `C=C(C)[C@@H]1CC[C@]2(C(=O)O)CC[C@]3(C)C(CCC4[C@@]5(C)CC[C@H](O)C(C)(C)C5CC[C@]43C)C12` (some centres undefined), the “activity, negative = inhibition” value was inactive: 13.1% [at 107 µM].
As to `C[C@]12CC[C@@H]3c4ccc(O)cc4C[C@@H](CCCCCCCCCS(=O)CCCC(F)(F)C(F)(F)F)C3[C@@H]1CC[C@@H]2O` (some centres undefined), the “activity, negative = inhibition” value is inactive: -16.9%.
For the molecule `CCCCCCC(C)(C)c1ccc([C@@H]2C[C@H](O)CC[C@H]2CCCO)c(O)c1`, the Potency result is “inactive”.
With `CN(C)C1CSSSC1`, the “activity, negative = inhibition” value is inactive: 18.2%.
On the same count and under the same terms, the result for `CO/C1=C\C(C)=C\[C@@H](C)[C@@H](O)[C@@H](C)C/C(C)=C/C=C\[C@H](OC)C([C@@H](C)[C@@H](O)[C@H](C)[C@@]2(O)C[C@@H](O)[C@H](C)C(C(C)C)O2)OC1=O` (some centres undefined) reads inactive: -14.5% [at 2.39 µM].
Still for that read-out and setting: the same measure for `CCN(CC)C(=O)C(C)Oc1cccc2ccccc12` (centres undefined): inactive: 14.6%.
Still for that read-out and setting: the result for `CCC[C@@](C)(COC(N)=O)COC(=O)NC(C)C` reads inactive: -6.93% [at 12 µM].
As to `CC[C@@]1(O)CC(O)c2c(cc3c(c2O)C(=O)c2c(O)ccc(O)c2C3=O)C1C(=O)OC` (some centres undefined), the Potency is active: 25.1 µM.
In the case of `Oc1ccc2c3c1O[C@H]1[C@@H](O)CC[C@@]4(O)[C@@H](C2)N(CC2CCC2)CC[C@]314`, the Potency result is “inactive”.
For the molecule `CS(=O)c1ccc(-c2nc(-c3ccc(F)cc3)c(-c3ccncc3)[nH]2)cc1` (centres undefined), the Potency result was “inactive”.
`CN1C[C@H](CNC(=O)OCc2ccccc2)C[C@@H]2c3cccc4c3c(cn4C)C[C@H]21`: the Potency result is “inactive”.
Regarding `CC(CCC(=O)O)C1CCC2C3C(O)C[C@@H]4CC(O)CC[C@@]4(C)C3CC[C@@]12C` (some centres undefined), the “activity, negative = inhibition” value is inactive: -1.37%.
For the molecule `O=C(O)c1cc(O)c(O)c(O)c1`, the “activity, negative = inhibition” value is inactive: -22.4%.
Turning to `CCCCCCCCCOc1ccc2[nH]cc(CCN)c2c1`, the “activity, negative = inhibition” value is inactive: -0.848% [at 19.4 µM].
With `Clc1ccc(COC(Cn2ccnc2)c2ccc(Cl)cc2Cl)cc1` (centres undefined), the Potency result is “inactive”.
The same measure, in the same setting: the same measure for `Cc1cccc(N2C(=O)NC(=O)/C(=C/c3cc4c(cc3[N+](=O)[O-])OCO4)C2=O)c1`: active: 89.1 µM.
Turning to `CC(C)C[C@H]1C(=O)N2CCC[C@H]2[C@]2(O)O[C@](NC(=O)C3C=C4c5cccc6[nH]c(Br)c(c56)C[C@H]4N(C)C3)(C(C)C)C(=O)N12` (some centres undefined), the “activity, negative = inhibition” value was inactive: -3.87% [at 107 µM].
In the case of `COc1cccc([C@@]2(O)CCCCC2CN(C)C)c1` (some centres undefined), the Potency result is “inactive”.
For the molecule `CO[C@H]1C=C2CCN(C)[C@@H]2[C@@H]2c3cc4c(cc3C(=O)O[C@H]21)OCO4`, the activity, negative = inhibition is inactive: -12.6% [at 12 µM].
Regarding `CC(C)Nc1nc(Cl)nc(NC(C)C)n1`, the “activity, negative = inhibition” value is inactive: -7.31% [at 107 µM].
Regarding `CCOc1cccc(OCC)c2c(C)[n+](CC3CCCO3)c(C)c1-2` (centres undefined), the Potency is active: 25.1 µM.
With `O=c1cc(-c2ccc(O)cc2)oc2c([C@H]3O[C@@H](CO)[C@@H](O)[C@@H](O)[C@@H]3O)c(O)cc(O)c12`, the activity, negative = inhibition was inactive: -9.38% [at 12 µM].
Regarding `CC[C@@H](CO)NC(=O)[C@@H]1C=C2c3cccc4c3c(cn4C)C[C@H]2N(C)C1`, the Potency entry was “inactive”.
As for `Cc1ccc(N2C(=O)NC(=O)/C(=C\C=C\c3ccco3)C2=O)cc1`, the “activity, negative = inhibition” value is inactive: -99.7% [at 107 µM].
Regarding `CC12NC(Cc3ccccc31)c1ccccc12` (centres undefined), the Potency entry was “inactive”.
On the same count and under the same terms, the result for `O=C1NC(=S)N(c2ccc(F)cc2)C(=O)/C1=C\c1ccoc1` reads active: 1 µM.
For `Clc1ccc(CO[C@@H](Cn2ccnc2)c2ccc(Cl)cc2Cl)cc1`, the activity, negative = inhibition is inactive: -7.34% [at 12 µM].
`C[C@]12CC[C@H]3[C@@H](CCC4=CC(=O)CC[C@@]43C)[C@@H]1CC[C@@H]2O`: the Potency result was “inactive”.
`CC(C)[C@H]1C(=O)O[C@@H]2CCN3CC=C(COC(=O)[C@](C)(O)[C@]1(C)O)[C@H]23`: the “activity, negative = inhibition” value is inactive: 18.4% [at 107 µM].
Still for that read-out and setting: the same measure for `CC(C)[C@H]1C(=O)N2CCC[C@H]2[C@]2(O)O[C@](NC(=O)[C@@H]3C=C4c5cccc6[nH]cc(c56)C[C@H]4N(C)C3)(C(C)C)C(=O)N12`: inactive: -34.9% [at 107 µM].
As for `N#CC(C#N)=Cc1ccc(O)c(O)c1`, the Potency result was “inactive”.
`CC1COC2=C1C(=O)C(=O)c1c2ccc2c1CCCC2(C)C` (centres undefined): the Potency is active: 20 µM and active: 28.2 µM.
Turning to `CCCCC/C=C\C/C=C\C/C=C\C/C=C\CCCC(=O)N[C@H](C)CO`, the “activity, negative = inhibition” value is inactive: -3.7% [at 19.4 µM].
Regarding `CCC1OC2(C)C(O)C(/C=C/C=C/C=C/c3oc(=O)cc(OC)c3C)OC1(C)C2OC(C)=O` (centres undefined), the “activity, negative = inhibition” value is inactive: 14.8%.
As for `O=C(O)CO`, the “activity, negative = inhibition” value is inactive: 20.1%.
